Test results as given in the supplement of paper PMC6089552.
Screen size: about 3,200 compounds; about 300 (9.4%) showed activity. The list shows a part of the results, in another mix than the full data.

Tested on: A673/TR/shEF
Test: cell viability (LOESS-normalised, relative to median of negative controls) (log2 ratio); higher = more viable cells (less compound effect), active = hit call of the paper (over 3 MAD below the median)
Settings: treatment time: 72 h
Summary of the method: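 A673/TR/shEF Ewing sarcoma cells (1,500 per well, 384-well plates) were grown with or without doxycycline to induce EWS-FLI1 shRNA knockdown, starting 24 h before compounds. Library compounds at two or more concentrations, with DMSO controls, were added for three days. Cell viability was read by CellTiter-Glo luminescence on an Envision reader, then LOESS-corrected per plate, divided by the median of negative controls and log2-transformed. Hits were wells at least three median absolute deviations from the median of all screened wells.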

[1] = 0.25 µM, library screen: screen1, EWS-FLI1 expression: high (no doxycycline)
[2] = 0.25 µM, library screen: screen1, EWS-FLI1 expression: low (doxycycline-induced shRNA knockdown)
[3] = 2.5 µM, library screen: screen1, EWS-FLI1 expression: high (no doxycycline)
[4] = 2.5 µM, library screen: screen1, EWS-FLI1 expression: low (doxycycline-induced shRNA knockdown)
[5] = 0.103 µM, library screen: screen3, EWS-FLI1 expression: high (no doxycycline)
[6] = 0.103 µM, library screen: screen3, EWS-FLI1 expression: low (doxycycline-induced shRNA knockdown)
[7] = 0.25 µM, library screen: screen2, EWS-FLI1 expression: high (no doxycycline)
[8] = 0.25 µM, library screen: screen2, EWS-FLI1 expression: low (doxycycline-induced shRNA knockdown)
[9] = 0.308 µM, library screen: screen3, EWS-FLI1 expression: high (no doxycycline)
[10] = 0.308 µM, library screen: screen3, EWS-FLI1 expression: low (doxycycline-induced shRNA knockdown)
[11] = 0.926 µM, library screen: screen3, EWS-FLI1 expression: high (no doxycycline)
[12] = 0.926 µM, library screen: screen3, EWS-FLI1 expression: low (doxycycline-induced shRNA knockdown)
[13] = 2.5 µM, library screen: screen2, EWS-FLI1 expression: high (no doxycycline)
[14] = 2.5 µM, library screen: screen2, EWS-FLI1 expression: low (doxycycline-induced shRNA knockdown)
[15] = 2.8 µM, library screen: screen3, EWS-FLI1 expression: high (no doxycycline)
[16] = 2.8 µM, library screen: screen3, EWS-FLI1 expression: low (doxycycline-induced shRNA knockdown)
[17] = 8.3 µM, library screen: screen3, EWS-FLI1 expression: high (no doxycycline)
[18] = 8.3 µM, library screen: screen3, EWS-FLI1 expression: low (doxycycline-induced shRNA knockdown)
[19] = 25 µM, library screen: screen3, EWS-FLI1 expression: high (no doxycycline)
[20] = 25 µM, library screen: screen3, EWS-FLI1 expression: low (doxycycline-induced shRNA knockdown)

Measured: cell viability (log2)

O=c1c(O)c(-c2ccc(O)c(O)c2)oc2cc(O)ccc12
inactive: [1] 0.102 | [2] 0.131 | [3] 0.118 | [4] 0.171

Cc1cc(C2CCCCC2)n(O)c(=O)c1
inactive: [1] 0.0729 | [2] 0.0678 | [3] 0.149 | [4] 0.158

C=C1CC/C=C(/C)CC[C@@H]2[C@@H]1CC2(C)C
inactive: [1] 0.102 | [2] 0.0257 | [3] 0.165 | [4] 0.118

O=C(O)C(=O)O.[NH-]C1CCCCC1[NH-].[Pt+2] (stereo not given)
inactive: [5] 0.0625 | [6] 0.0242 | [7] 0.0166 | [8] 0.126 | [9] 0.1 | [10] 0.0417 | [11] -0.00214 | [12] 0.0798 | [13] 0.0703 | [14] 0.0751 | [15] 0.0326 | [16] 0.0373 | [17] 0.000238 | [18] 0.0484 | [19] -0.117 | [20] -0.0858

O=C(O)c1cc2cc(Cl)ccc2[nH]1
inactive: [1] 0.0631 | [2] -0.00653 | [3] 0.106 | [4] 0.0362

Cc1ccc(OCC(=O)N2CCC(C)CC2)c(C)c1
inactive: [1] 0.0605 | [2] 0.118 | [3] 0.14 | [4] 0.114

O=C(O)c1cc(=O)c2ccccc2o1
inactive: [1] 0.117 | [2] 0.0802 | [3] 0.113 | [4] 0.0411

CC(=O)CC(=O)CCC(=O)O
inactive: [1] 0.167 | [2] 0.123 | [3] 0.14 | [4] 0.11

NS(=O)(=O)c1cc(C(=O)O)c(NCc2ccco2)cc1Cl
inactive: [5] 0.0932 | [6] -0.0415 | [1] 0.1 | [2] -0.0303 | [7] 0.155 | [8] 0.0924 | [9] 0.113 | [10] 0.0841 | [11] 0.0979 | [12] 0.067 | [3] 0.175 | [4] 0.111 | [13] 0.094 | [14] -0.00291 | [15] 0.0122 | [16] 0.0789 | [17] 0.0686 | [18] 0.0576 | [19] 0.0715 | [20] 0.0929

CCC[C@@H]1C[C@@H](C(=O)NC(C(C)Cl)[C@H]2O[C@H](SC)[C@H](O)[C@@H](O)[C@H]2O)N(C)C1 (stereo not given in full)
inactive: [5] 0.116 | [6] 0.116 | [1] 0.122 | [2] 0.0603 | [9] 0.0555 | [10] 0.0178 | [11] 0.122 | [12] 0.0533 | [3] 0.162 | [4] 0.16 | [15] 0.103 | [16] -0.00415 | [17] 0.0069 | [18] 0.0468 | [19] 0.000584 | [20] 0.111
